B1: CUAUGGU (DNA:RNA)
RNA: GGGAGACCGGAAUUCAGAUUGUCCCUAUGGUUUAAAUCCCGUCGUAGCCACCA
DNA 1: CAATCTGAATTCCGGTCTCCC
DNA 2: TGGTGGCTACGACGGGATT
B2: UAGUUGC (DNA:RNA)
RNA: B1 RNA with C25U, U26A, A27G, G29U, U31C
DNA 1: CAATCTGAATTCCGGTCTCCC
DNA 2: TGGTGGCTACGACGGGATT
B3: ACAGUAG (DNA:RNA)
RNA: B1 RNA with C25A, U26C, U28G, G29U, G30A, U31G
DNA 1: CAATCTGAATTCCGGTCTCCC
DNA 2: TGGTGGCTACGACGGGATT
B4: AACCUUU (DNA:RNA)
RNA: B1 RNA with C25A, U26A, A27C, U28C, G29U, G30U
DNA 1: CAATCTGAATTCCGGTCTCCC
DNA 2: TGGTGGCTACGACGGGATT
B5: GAACGUG (DNA:RNA)
RNA: B1 RNA with C25G, U26A, U28C, G30U, U31G
DNA 1: CAATCTGAATTCCGGTCTCCC
DNA 2: TGGTGGCTACGACGGGATT
B6: CGGGCGC (DNA:RNA)
RNA: B1 RNA with U26G, A27G, U28G, G29C, U31C
DNA 1: CAATCTGAATTCCGGTCTCCC
DNA 2: TGGTGGCTACGACGGGATT
B7: CACUCUG (DNA:RNA)
RNA: B1 RNA with U26A, A27C, G29C, G30U, U31G
DNA 1: CAATCTGAATTCCGGTCTCCC
DNA 2: TGGTGGCTACGACGGGATT
B8: UUCUAAA (DNA:RNA)
RNA: B1 RNA with C25U, A27C, G29A, G30A, U31A
DNA 1: CAATCTGAATTCCGGTCTCCC
DNA 2: TGGTGGCTACGACGGGATT
B9: CAGAAAC (DNA:RNA)
RNA: B1 RNA with U26A, A27G, U28A, G29A, G30A, U31C
DNA 1: CAATCTGAATTCCGGTCTCCC
DNA 2: TGGTGGCTACGACGGGATT
B10: GACUAGG (DNA:RNA)
RNA: B1 RNA with C25G, U26A, A27C, G29A, U31G
DNA 1: CAATCTGAATTCCGGTCTCCC
DNA 2: TGGTGGCTACGACGGGATT
B11: UCUGGUC (DNA:RNA)
RNA: B1 RNA with C25U, U26C, A27U, U28G, G30U, U31C
DNA 1: CAATCTGAATTCCGGTCTCCC
DNA 2: TGGTGGCTACGACGGGATT
B12: CUCCGCG (DNA:RNA)
RNA: B1 RNA with A27C, U28C, G30C, U31G
DNA 1: CAATCTGAATTCCGGTCTCCC
DNA 2: TGGTGGCTACGACGGGATT
B13: AACUGCU (DNA:RNA)
RNA: B1 RNA with C25A, U26A, A27C, G30C
DNA 1: CAATCTGAATTCCGGTCTCCC
DNA 2: TGGTGGCTACGACGGGATT
B14: AGACCCA (DNA:RNA)
RNA: B1 RNA with C25A, U26G, U28C, G29C, G30C, U31A
DNA 1: CAATCTGAATTCCGGTCTCCC
DNA 2: TGGTGGCTACGACGGGATT
B15: CACUCAC (DNA:RNA)
RNA: B1 RNA with U26A, A27C, G29C, G30A, U31C
DNA 1: CAATCTGAATTCCGGTCTCCC
DNA 2: TGGTGGCTACGACGGGATT
B16: UCUGUGU (DNA:RNA)
RNA: B1 RNA with C25U, U26C, A27U, U28G, G29U
DNA 1: CAATCTGAATTCCGGTCTCCC
DNA 2: TGGTGGCTACGACGGGATT
B17: CAAGCGC (DNA:RNA)
RNA: B1 RNA with U26A, U28G, G29C, U31C
DNA 1: CAATCTGAATTCCGGTCTCCC
DNA 2: TGGTGGCTACGACGGGATT
B18: AUUUAGG (DNA:RNA)
RNA: B1 RNA with C25A, A27U, G29A, U31G
DNA 1: CAATCTGAATTCCGGTCTCCC
DNA 2: TGGTGGCTACGACGGGATT
B19: CGGUAUG (DNA:RNA)
RNA: B1 RNA with U26G, A27G, G29A, G30U, U31G
DNA 1: CAATCTGAATTCCGGTCTCCC
DNA 2: TGGTGGCTACGACGGGATT
B20: CCGAAGC (DNA:RNA)
RNA: B1 RNA with U26C, A27G, U28A, G29A, U31C
DNA 1: CAATCTGAATTCCGGTCTCCC
DNA 2: TGGTGGCTACGACGGGATT
B21: ACGAGCG (DNA:RNA)
RNA: B1 RNA with C25A, U26C, A27G, U28A, G30C, U31G
DNA 1: CAATCTGAATTCCGGTCTCCC
DNA 2: TGGTGGCTACGACGGGATT
B22: UAGUCAG (DNA:RNA)
RNA: B1 RNA with C25U, U26A, A27G, G29C, G30A, U31G
DNA 1: CAATCTGAATTCCGGTCTCCC
DNA 2: TGGTGGCTACGACGGGATT
B23: GAAUACA (DNA:RNA)
RNA: B1 RNA with C25G, U26A, G29A, G30C, U31A
DNA 1: CAATCTGAATTCCGGTCTCCC
DNA 2: TGGTGGCTACGACGGGATT
B24: CAAAUUG (DNA:RNA)
RNA: B1 RNA with U26A, U28A, G29U, G30U, U31G
DNA 1: CAATCTGAATTCCGGTCTCCC
DNA 2: TGGTGGCTACGACGGGATT
B25: UAAGCCG (DNA:RNA)
RNA: B1 RNA with C25U, U26A, U28G, G29C, G30C, U31G
DNA 1: CAATCTGAATTCCGGTCTCCC
DNA 2: TGGTGGCTACGACGGGATT
B26: CACUCCG (DNA:RNA)
RNA: B1 RNA with U26A, A27C, G29C, G30C, U31G
DNA 1: CAATCTGAATTCCGGTCTCCC
DNA 2: TGGTGGCTACGACGGGATT
B27: AAAAGGA (DNA:RNA)
RNA: B1 RNA with C25A, U26A, U28A, U31A
DNA 1: CAATCTGAATTCCGGTCTCCC
DNA 2: TGGTGGCTACGACGGGATT
B28: AGAUGAU (DNA:RNA)
RNA: B1 RNA with C25A, U26G, G30A
DNA 1: CAATCTGAATTCCGGTCTCCC
DNA 2: TGGTGGCTACGACGGGATT
B29: UUGUUGA (DNA:RNA)
RNA: B1 RNA with C25U, A27G, G29U, U31A
DNA 1: CAATCTGAATTCCGGTCTCCC
DNA 2: TGGTGGCTACGACGGGATT
B30: CUUCGCU (DNA:RNA)
RNA: B1 RNA with A27U, U28C, G30C
DNA 1: CAATCTGAATTCCGGTCTCCC
DNA 2: TGGTGGCTACGACGGGATT
B31: CGAGUGU (DNA:RNA)
RNA: B1 RNA with U26G, U28G, G29U
DNA 1: CAATCTGAATTCCGGTCTCCC
DNA 2: TGGTGGCTACGACGGGATT

Where a chain is given by its changes, count along the chain named. Some of the results follow.

In the test the target is T1, RBFOX1 RRM RbFoxmut (Fox-RRM*) (Homo sapiens, UniProt Q9NWB1 109-208, R118D;E147R;N151S;E152T).
T1 sequence: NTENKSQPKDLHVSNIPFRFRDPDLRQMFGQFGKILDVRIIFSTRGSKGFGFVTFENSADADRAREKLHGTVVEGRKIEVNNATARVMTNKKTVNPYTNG
The test is described as follows: EMSA; HiTS-Eq, 1 nM pool, 10 min; buffer printed only for the single-RNA assays: 10 mM Tris pH 7.5, 150 mM NaCl, 3.4 mM EDTA, 0.001% NP-40, 30 C. The conditions noted are these: tags: His6 N-terminal (pET28a); label: 5' 32P. A digest of the protocol:
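Purified RbFox RRM (wild type or mutant) was equilibrated for 10 min in 50 µL with 1 nM of a 5′-radiolabelled pool of RNA with 7 randomized nucleotides, its flanks annealed to DNA oligonucleotides, across increasing protein concentrations. Free RNA was separated by 8% native PAGE, excised, reverse-transcribed, PCR-barcoded and sequenced on an Illumina HiSeq 2500. Relative association constants came from read-count changes of each variant against the control reaction, normalised to the cognate motif.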
On the technique in general: A gel shift assay detects complexes by their altered migration in electrophoresis.
For the molecule B1, the binding signal was 0.127 KA relative to UGCAUGU.

In the case of B2, the binding signal is 0.111 KA relative to UGCAUGU.

Take B3: the binding signal was 0.119 KA relative to UGCAUGU.

Turning to B4, the binding signal was 0.064 KA relative to UGCAUGU.

B5: the binding signal was 0.226 KA relative to UGCAUGU.

In the case of B6, the binding signal is 0.102 KA relative to UGCAUGU.

For the molecule B7, the binding signal was 0.0573 KA relative to UGCAUGU.

Take B8: the binding signal was 0.0971 KA relative to UGCAUGU.

For the molecule B9, the binding signal was 0.101 KA relative to UGCAUGU.

Regarding B10, the binding signal was 0.0968 KA relative to UGCAUGU.

Regarding B11, the binding signal is 0.153 KA relative to UGCAUGU.

For B12, the binding signal was 0.117 KA relative to UGCAUGU.

Consider B13, for which the binding signal was 0.0766 KA relative to UGCAUGU.

Turning to B14, the binding signal is 0.0527 KA relative to UGCAUGU.

On to B15, for which the binding signal was 0.0799 KA relative to UGCAUGU.

Take B16: the binding signal was 0.14 KA relative to UGCAUGU.

As to B17, the binding signal was 0.0844 KA relative to UGCAUGU.

Take B18: the binding signal is 0.0851 KA relative to UGCAUGU.

For the molecule B19, the binding signal was 0.885 KA relative to UGCAUGU.

With B20, the binding signal was 0.0985 KA relative to UGCAUGU.

In the case of B21, the binding signal is 0.16 KA relative to UGCAUGU.

For the molecule B22, the binding signal was 0.0969 KA relative to UGCAUGU.

With B23, the binding signal is 0.117 KA relative to UGCAUGU.

For B24, the binding signal is 0.117 KA relative to UGCAUGU.

Regarding B25, the binding signal is 0.12 KA relative to UGCAUGU.

Turning to B26, the binding signal is 0.0747 KA relative to UGCAUGU.

In the case of B27, the binding signal is 0.0508 KA relative to UGCAUGU.

On to B28, for which the binding signal was 0.0767 KA relative to UGCAUGU.

Regarding B29, the binding signal was 0.0998 KA relative to UGCAUGU.

Take B30: the binding signal is 0.108 KA relative to UGCAUGU.

For B31, the binding signal is 0.203 KA relative to UGCAUGU.

These data come from article PMC9911399, “Two distinct binding modes provide the RNA-binding protein RbFox with extraordinary sequence specificity”.
